Test results reported in PMC9674701.
These are yes or no findings as the source states them, for the method shown. Some results given as binding are weak or reduced against the parent protein; the word gives no strength. Blank lines part the entries; values can stand above or below the substance they belong to.

The chains behind the UniProt entries cited, without tags or fusion partners. Where a name states a change or a piece, a line headed by the entry shows the natural chain unless it says otherwise. A line that says so, or that is headed by a name, gives the form on record, which may keep a tag or linker. Residues count along the entry.
UniProt P02454: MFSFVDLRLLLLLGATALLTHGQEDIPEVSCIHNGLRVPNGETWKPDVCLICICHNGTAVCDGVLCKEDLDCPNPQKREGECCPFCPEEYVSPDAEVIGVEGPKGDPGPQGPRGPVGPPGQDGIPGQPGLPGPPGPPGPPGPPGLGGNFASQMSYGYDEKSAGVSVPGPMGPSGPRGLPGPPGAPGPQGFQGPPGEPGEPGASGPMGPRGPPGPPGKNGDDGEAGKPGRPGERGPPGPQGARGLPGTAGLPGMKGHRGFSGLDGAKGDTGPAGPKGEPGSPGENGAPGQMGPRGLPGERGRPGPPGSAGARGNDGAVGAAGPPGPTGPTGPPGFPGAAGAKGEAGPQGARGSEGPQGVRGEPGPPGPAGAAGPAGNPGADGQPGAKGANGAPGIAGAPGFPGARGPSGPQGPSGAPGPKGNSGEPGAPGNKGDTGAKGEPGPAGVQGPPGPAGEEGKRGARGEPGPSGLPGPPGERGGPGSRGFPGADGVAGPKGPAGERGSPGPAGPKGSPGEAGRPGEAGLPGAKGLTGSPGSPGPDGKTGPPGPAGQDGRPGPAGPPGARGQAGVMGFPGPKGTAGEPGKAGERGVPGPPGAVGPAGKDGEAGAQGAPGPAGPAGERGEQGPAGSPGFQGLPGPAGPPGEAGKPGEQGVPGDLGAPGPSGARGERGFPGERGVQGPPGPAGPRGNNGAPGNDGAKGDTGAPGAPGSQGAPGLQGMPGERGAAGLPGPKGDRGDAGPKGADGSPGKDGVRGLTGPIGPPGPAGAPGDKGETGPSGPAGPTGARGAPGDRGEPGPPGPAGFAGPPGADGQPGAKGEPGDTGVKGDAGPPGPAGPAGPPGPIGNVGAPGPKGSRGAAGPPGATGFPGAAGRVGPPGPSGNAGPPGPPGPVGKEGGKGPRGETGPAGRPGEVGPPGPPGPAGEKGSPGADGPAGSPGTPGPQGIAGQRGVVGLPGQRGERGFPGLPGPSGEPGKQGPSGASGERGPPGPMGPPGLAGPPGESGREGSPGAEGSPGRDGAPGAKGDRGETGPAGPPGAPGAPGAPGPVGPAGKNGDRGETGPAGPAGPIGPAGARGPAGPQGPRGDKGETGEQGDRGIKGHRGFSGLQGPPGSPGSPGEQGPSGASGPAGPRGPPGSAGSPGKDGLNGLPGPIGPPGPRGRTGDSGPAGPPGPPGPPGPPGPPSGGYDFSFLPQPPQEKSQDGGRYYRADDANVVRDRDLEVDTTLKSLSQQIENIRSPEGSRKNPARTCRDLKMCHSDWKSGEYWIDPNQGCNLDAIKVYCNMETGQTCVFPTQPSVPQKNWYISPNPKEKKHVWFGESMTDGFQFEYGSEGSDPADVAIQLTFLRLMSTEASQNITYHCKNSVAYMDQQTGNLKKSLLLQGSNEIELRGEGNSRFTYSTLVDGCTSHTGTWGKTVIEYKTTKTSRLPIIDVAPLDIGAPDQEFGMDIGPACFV
UniProt P12109: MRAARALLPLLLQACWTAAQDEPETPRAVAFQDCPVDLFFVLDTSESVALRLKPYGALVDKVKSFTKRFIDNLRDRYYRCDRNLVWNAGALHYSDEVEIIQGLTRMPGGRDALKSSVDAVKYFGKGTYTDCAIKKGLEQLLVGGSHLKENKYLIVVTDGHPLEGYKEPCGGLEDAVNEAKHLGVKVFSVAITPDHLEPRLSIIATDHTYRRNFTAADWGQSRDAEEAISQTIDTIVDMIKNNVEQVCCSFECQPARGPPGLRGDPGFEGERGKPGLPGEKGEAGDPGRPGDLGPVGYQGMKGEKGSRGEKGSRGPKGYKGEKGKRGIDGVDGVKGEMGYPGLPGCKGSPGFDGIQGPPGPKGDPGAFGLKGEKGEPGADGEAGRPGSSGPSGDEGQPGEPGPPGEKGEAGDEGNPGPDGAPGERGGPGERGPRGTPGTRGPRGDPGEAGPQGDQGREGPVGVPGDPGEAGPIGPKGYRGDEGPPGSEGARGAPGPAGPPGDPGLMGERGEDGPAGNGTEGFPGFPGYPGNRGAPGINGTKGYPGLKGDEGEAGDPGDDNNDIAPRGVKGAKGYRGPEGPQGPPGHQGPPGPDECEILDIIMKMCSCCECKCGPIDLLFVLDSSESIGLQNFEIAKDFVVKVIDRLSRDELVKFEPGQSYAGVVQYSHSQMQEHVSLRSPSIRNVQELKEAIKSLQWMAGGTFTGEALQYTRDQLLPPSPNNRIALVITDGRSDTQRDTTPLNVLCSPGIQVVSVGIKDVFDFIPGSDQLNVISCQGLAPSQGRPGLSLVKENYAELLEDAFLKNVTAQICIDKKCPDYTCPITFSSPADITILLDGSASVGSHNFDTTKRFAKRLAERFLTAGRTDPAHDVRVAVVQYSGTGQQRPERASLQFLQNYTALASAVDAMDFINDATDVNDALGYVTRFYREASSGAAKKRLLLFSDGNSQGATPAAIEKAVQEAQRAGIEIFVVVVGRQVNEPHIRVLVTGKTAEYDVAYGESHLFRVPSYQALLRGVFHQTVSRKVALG
UniProt P02466: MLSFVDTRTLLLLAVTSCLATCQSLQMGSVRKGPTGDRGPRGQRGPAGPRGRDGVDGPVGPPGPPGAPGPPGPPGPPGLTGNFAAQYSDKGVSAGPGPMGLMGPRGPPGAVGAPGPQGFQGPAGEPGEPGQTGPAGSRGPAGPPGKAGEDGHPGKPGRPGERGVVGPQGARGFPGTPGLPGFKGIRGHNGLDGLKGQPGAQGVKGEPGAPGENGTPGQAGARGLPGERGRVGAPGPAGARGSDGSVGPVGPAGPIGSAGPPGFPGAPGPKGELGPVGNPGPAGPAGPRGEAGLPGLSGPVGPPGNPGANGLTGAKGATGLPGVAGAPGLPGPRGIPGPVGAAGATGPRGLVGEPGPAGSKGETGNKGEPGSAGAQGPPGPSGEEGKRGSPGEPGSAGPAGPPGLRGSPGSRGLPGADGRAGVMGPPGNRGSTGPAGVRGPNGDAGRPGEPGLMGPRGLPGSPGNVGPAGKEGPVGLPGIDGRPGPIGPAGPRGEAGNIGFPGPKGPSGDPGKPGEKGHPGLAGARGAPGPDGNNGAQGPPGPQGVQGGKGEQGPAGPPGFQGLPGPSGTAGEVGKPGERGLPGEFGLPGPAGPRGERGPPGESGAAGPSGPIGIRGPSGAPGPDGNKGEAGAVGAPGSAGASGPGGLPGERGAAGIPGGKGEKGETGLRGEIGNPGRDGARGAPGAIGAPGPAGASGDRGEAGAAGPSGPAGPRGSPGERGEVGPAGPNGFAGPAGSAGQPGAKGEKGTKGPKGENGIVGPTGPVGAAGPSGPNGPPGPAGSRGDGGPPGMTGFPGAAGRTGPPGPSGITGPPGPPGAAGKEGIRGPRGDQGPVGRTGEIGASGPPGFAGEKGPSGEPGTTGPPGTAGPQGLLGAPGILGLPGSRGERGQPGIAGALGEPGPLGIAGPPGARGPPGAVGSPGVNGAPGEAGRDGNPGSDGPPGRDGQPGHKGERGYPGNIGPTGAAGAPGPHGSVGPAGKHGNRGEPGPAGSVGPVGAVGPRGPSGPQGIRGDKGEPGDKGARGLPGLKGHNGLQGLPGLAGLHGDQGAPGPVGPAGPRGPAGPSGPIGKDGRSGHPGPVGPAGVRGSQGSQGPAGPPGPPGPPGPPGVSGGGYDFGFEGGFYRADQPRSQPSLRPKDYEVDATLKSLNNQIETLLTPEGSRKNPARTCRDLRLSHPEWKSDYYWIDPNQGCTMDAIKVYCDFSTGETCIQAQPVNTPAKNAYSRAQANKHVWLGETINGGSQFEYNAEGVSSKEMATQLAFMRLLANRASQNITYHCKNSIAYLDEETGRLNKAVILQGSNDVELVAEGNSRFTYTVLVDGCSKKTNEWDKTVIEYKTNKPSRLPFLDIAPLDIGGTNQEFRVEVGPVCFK
UniProt Q9H6X2: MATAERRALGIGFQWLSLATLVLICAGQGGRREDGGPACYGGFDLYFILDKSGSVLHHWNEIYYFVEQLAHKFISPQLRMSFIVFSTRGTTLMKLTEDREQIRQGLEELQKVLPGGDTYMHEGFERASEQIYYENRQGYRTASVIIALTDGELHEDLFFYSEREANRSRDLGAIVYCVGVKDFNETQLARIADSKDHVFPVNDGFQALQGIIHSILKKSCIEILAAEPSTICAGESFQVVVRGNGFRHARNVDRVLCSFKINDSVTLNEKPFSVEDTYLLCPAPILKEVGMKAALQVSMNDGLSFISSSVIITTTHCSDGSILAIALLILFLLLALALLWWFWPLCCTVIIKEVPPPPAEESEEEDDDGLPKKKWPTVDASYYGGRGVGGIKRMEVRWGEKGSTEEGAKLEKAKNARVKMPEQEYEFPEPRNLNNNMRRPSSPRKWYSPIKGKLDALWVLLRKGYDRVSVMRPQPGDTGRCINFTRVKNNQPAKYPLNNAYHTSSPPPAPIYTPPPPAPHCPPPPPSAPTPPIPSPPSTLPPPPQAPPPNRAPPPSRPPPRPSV
TEM8-D150A-AP (Q9H6X2, form named): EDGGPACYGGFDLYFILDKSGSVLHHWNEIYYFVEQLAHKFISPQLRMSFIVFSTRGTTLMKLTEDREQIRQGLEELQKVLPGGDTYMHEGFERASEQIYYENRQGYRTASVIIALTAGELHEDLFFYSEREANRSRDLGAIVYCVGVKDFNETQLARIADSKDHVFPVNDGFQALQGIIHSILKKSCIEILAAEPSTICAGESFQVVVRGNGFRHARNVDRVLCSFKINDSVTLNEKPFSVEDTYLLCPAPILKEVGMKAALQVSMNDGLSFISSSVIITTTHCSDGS
UniProt P05187, residues 23-506: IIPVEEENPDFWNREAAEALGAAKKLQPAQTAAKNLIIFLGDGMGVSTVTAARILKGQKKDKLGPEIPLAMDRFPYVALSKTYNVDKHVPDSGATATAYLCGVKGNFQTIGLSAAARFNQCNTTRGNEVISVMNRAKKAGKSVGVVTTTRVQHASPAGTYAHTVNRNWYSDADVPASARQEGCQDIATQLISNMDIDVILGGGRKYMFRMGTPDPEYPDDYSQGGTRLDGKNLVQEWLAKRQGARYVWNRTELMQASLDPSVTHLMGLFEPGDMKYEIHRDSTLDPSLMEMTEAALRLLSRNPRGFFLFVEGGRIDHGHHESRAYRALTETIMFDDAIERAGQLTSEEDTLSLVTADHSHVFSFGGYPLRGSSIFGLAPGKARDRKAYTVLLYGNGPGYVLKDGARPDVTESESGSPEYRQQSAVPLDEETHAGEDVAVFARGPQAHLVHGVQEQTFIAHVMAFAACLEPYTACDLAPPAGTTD

What was measured:
[1] = target: collagen I (Sigma, C3867) (UniProt P02454); assay: cell binding assay on coated plates; 1 ug of ECM protein, PA or BSA coated on 96-well tissue culture plates; CHO or CHO-TEM8 cells, 25,000 cells/well, in Hams F12 with 10% FBS, 1 hour at 37 C; washed twice; bound cells measured with Alamar blue; only the target purified
[2] = target: collagen VI (UniProt P12109); assay: as above
[3] = target: T1, rat tail collagen I (rat) (UniProt P02454+P02466); assay: ELISA; collagen I (fibrillar film, e.g. 200 ug/mL, neutralised in 50 mM Tris-HCl pH 8, 37 C 2 h), PA or other ECM proteins coated on plates; purified AP fusion proteins added in D-PBS with calcium, magnesium and 0.5% BSA, 4 C overnight; AP activity with PNPP at 405 nm; in later assays DMEM-F12/0.5% BSA/1.0% Tween 20 and HRP-anti-PLAP at 450 nm; both purified
[4] = target: T1, rat tail collagen I (rat); assay: ELISA; TEM8-AP on immobilised col1 in the absence or presence of 20 ug/mL of m830 anti-TEM8 antibody; both purified
[5] = target: collagen VI (UniProt P12109); assay: ELISA; collagen I (fibrillar film, e.g. 200 ug/mL, neutralised in 50 mM Tris-HCl pH 8, 37 C 2 h), PA or other ECM proteins coated on plates; purified AP fusion proteins added in D-PBS with calcium, magnesium and 0.5% BSA, 4 C overnight; AP activity with PNPP at 405 nm; in later assays DMEM-F12/0.5% BSA/1.0% Tween 20 and HRP-anti-PLAP at 450 nm; both purified
[6] = target: collagen IV (UniProt P02462); assay: as above

binding [1]: binds | binding [2]: binds
Substance: TEM8 on TEM8 overexpressing CHO cells (CHO-TEM8), wild type (from UniProt Q9H6X2 33-564) (receptor)

binding [3]: no binding
Substance: TEM8-D150A-AP (from UniProt Q9H6X2 33-321) (receptor)

binding [3]: no binding
Substance: alkaline phosphatase alone (AP) (from UniProt P05187 23-506) (enzyme)

binding [4]: binds | binding [3]: binds | binding [5]: binds | binding [6]: no binding
Substance: alkaline phosphatase-tagged TEM8 extracellular domain (TEM8-AP), wild type (from UniProt Q9H6X2 33-321) (receptor)
